# Hit rate of the full screen: of about 150,000 compounds, about 540 (0.36%) showed an effect of 50% or more. This is one part of the list.
# Tested on: Plasmodium falciparum
# Assay: Primary screen in NF54 nanoGlo assay, in single point, at 2uM, 72h; a lower Z score goes with more inhibition
# Assay type: functional, Erythrocyte
# Conditions: timepoint 72 hour
Compound,% Inhibition [%],Z score
O=C(NCC1CCc2ccccc21)N1CCCC(C2CCCCO2)C1 (stereo not drawn),-8,0.82
Cn1cnc(CNC(=O)[C@H]2CC2(C)C)n1,-14,1.48
COCC1(CNC(=O)c2cc(F)cc(C#N)c2)CCC1,-14,1.42
O=C(NCCS(=O)(=O)N1CCN(c2cccc(Cl)c2)CC1)c1cccs1,23,-2.9
CCC(=O)N1CCC(Cc2n[nH]c(C(C)C)n2)CC1,-9,1.37
COc1cccc(-n2cnc3cc(C(=O)NCc4cccnc4)ccc3c2=O)c1,-8,1.08
Cc1cccc(NC(=O)Nc2ccccc2-c2cc3ccccc3[nH]2)c1,-10,1.52
CCn1nccc1-c1cnc2nc(C)nn2c1,-6,0.88
Cc1nn(C)c(Cl)c1CN1CCCC[C@@H]1Cn1cncn1,-6,0.7
Cc1cccc(S(=O)(=O)N2C[C@H](c3cn(C)cn3)[C@@H](N)C2)c1F,0,0.09
O=C(N[C@H]1CCCCNC1=O)c1ccc2ccccc2c1,3,-0.64
COC[C@H](C)c1nc(C2(c3ccc(C)cc3)CCOCC2)no1,-4,0.84
CN1CCC(Cc2nc(Cn3cc4ccccc4n3)n(CCO)n2)CC1,-10,1.94
CC(C)[C@@H](c1ccc(F)cc1)N(C)Cc1nnn(CC(F)(F)F)n1,-1,0.1
O=C(Nc1ccccn1)N[C@H]1CC(=O)N(c2ccc3c(c2)OCCO3)C1,5,-0.7
CCOC1CC(O)(CNC(=O)Cc2ccsc2)C1 (stereo not drawn),-2,0.36
Cn1ncc2c(Nc3ccc4c(c3)nc(C(C)(C)C)n4C)ncnc21,2,-0.35
CCN(CC)S(=O)(=O)c1ccc2c(c1)cc(C(=O)N1CCN(C)CC1)n2C,-7,1
O=C1C[C@H](c2cccc(O)c2)c2c(n(C3CCCCCCC3)[nH]c2=O)N1,-6,0.81
Cc1ccc([C@@H](C)NC(=O)N2CCC[C@H]3C(=O)N(C)C[C@H]32)cc1F,-13,2.48
O=C(Nc1nccs1)c1cc2n(n1)CCCO2,-12,1.92
CCOc1c(CNCCO)cc(Br)cc1OC,-6,0.72
CN(C)C(=O)c1ccc(NCc2ccc(Cn3ccnc3)cc2)nc1,-7,0.99
CCN1CCC(N(C)C(=O)c2cc3cc(Cl)ccn3n2)C(C)C1 (stereo not drawn),-2,0.22

# From ChEMBL document CHEMBL4888484, “Replenishing the malaria drug discovery pipeline: Screening and hit evaluation of the MMV Hit Generation Library 1 (HGL1) against asexual blood stage Plasmodium falciparum ,using a nano luciferase reporter read-out” (2022)
